Experimental findings from PubChem BioAssay (NCI) are described below.

Values joined by “and” are separate entries in the source; they are usually repeats but may differ in a detail not shown here. Equal entries are not always repeated.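 Method: 48-hour compound exposure of cells in 96-well plates, five concentrations, linear interpolation of endpoints. Abbreviation: GI50, concentration required for 50% inhibition of growth. TGI: total growth inhibition.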 Active and inactive are the calls of the source. No stated cut-off is given here; in the data, active means GI50 below about 0.43 µM; inactive means the rest.

This assay concerns NCI-H322M lung. The experiment in a line: NCI-60 cell line screen, 48 h.

`N#C/C(=C\Nc1ccccn1)C(=O)C1CC1` displayed a TGI of over 100 µM.

Turning to `Cc1ccc(Nc2nc3ccccc3c(=O)n2N)cc1`, the TGI was over 100 µM.

Turning to `Cc1ccc(C2C3Cc4ccccc4C3=NN2c2ccc(S(=O)(=O)NC(=O)NC3CCCCC3)cc2)cc1` (stereo not given), the GI50 was 4.65 µM and the TGI amounted to 25.7 µM.

Molecule `CC(=O)/C(=C/n1ccc(=O)[nH]c1=S)C(=O)Nc1ccccc1C` displayed a TGI of over 100 µM.

Take `O=C1C(Cl)C(c2cc(Br)ccc2O)N1n1cnc2ccccc2c1=O` (stereo not given): the TGI came to 50 µM.

As to `O=C1OCC(C#Cc2ccccc2)=C1Br`, the GI50 was 17.2 µM and the TGI was determined as 35.7 µM.

`CC1(C)O[C@@H](CC/C=C/CO)[C@H](CC/C=C/CO)O1` registered a TGI of over 100 µM.

As to `O=c1oc2c3ccc4ccccc4c3n(CCCN3CCCCC3)c2c2ccccc12`, the TGI was over 100 µM.

On to `Cn1c(=O)c2[nH]c(CSCc3ccccc3)nc2n(C)c1=O`, for which the TGI is over 100 µM.

In turn, `N#CCCC1(CCC#N)CCCCCCC(CCC#N)(CCC#N)C(=O)C1=O` gave a TGI of over 100 µM.

In the case of `CCOC(=O)C(=Cc1ccccc1Cl)C(=O)OCC`, the TGI amounted to 3.35 µM.

Turning to `COc1cc2nc3c(=C(C#N)C#N)c4ccccc4n3c(=O)c2cc1OC`, the TGI was over 100 µM.

Consider `O=C(CC1(O)C(=O)Nc2ccccc21)c1ccc2ccccc2c1` (stereo not given), for which the TGI is over 100 µM.

Turning to `O=C(CCN1CCOCC1)c1ccc(Oc2ccc(F)cc2)cc1`, the TGI was over 100 µM.

In turn, `COC(=O)C1=C(O)C(C(=O)OC)[C@]2(O)[C@@H](C(=O)OC)[C@H]1[C@H](C)[C@@H](c1ccccc1)[C@@H]2C(=O)OC` (stereo not given in full) returned a TGI of over 100 µM.

`O=C1CCC/C=C\C[C@H]2C=CC(=O)/C2=C/C[C@H](CCc2cccc(C(F)(F)F)c2)O1`: the GI50 is 3.96 µM and the TGI is 13.3 µM.

On to `c1ccc2nc(-c3ccc4c(c3)OCO4)ccc2c1`, for which the TGI is over 100 µM.

`CC1(c2ccccc2)CCN(C2CC2)CO1` (stereo not given) registered a TGI of over 100 µM.

As for `O=C(O)C1CCC(=O)N1C(=O)C(Cl)c1ccccc1` (stereo not given), the TGI is over 100 µM.

Take `O=[N+]([O-])c1cccc2nc3ccccc3c(NCCN(CCO)CCO)c12`: the TGI is 0.0353 µM and 0.0434 µM.

In turn, `CC(=O)OC(C[C@H](C)[C@@H]1CC[C@]2(C)C3=CCC4C(C)(C)C(=O)CC[C@]4(C)C3CCC12C)C1OC1(C)C` (stereo not given in full) registered a TGI of 42.8 µM.

For the molecule `CC1(C)[C@@H]2CC[C@@]1(C)C1(SS1=O)C21Cc2ccccc2C1` (stereo not given in full), the TGI is over 100 µM.

Molecule `OC1CCCCCCCCCCC1SCCCCl` (stereo not given) registered a TGI of over 100 µM.

`CCN(CC)c1ccc2cc3ccc(=[N+](CC)CC)cc-3oc2c1`: the TGI was 18.3 µM.

Molecule `C=C(C)c1nc(C#N)c(N)o1` yielded a TGI of over 100 µM.

For the molecule `COC(=O)/C(=N\NC(N)=O)C(C(=O)C(=O)Nc1ccccc1C(=O)OC)c1nc2ccc(C(=O)c3ccccc3)cc2[nH]c1=O` (stereo not given), the TGI was over 100 µM.

Take `COc1ccc(C2=C(c3cn(C)c4ccccc34)C(=O)OC2)cc1OC`: the GI50 is 5.37 µM and the TGI is over 100 µM.

As for `Cc1ccc(C(=O)CC(O)(C(F)(F)F)C(F)(F)F)cc1[N+](=O)[O-]`, the TGI came out at 5.3 µM.

`C=CCCCCC1CCC2CCC(CCCC)N12` (stereo not given): the outcome was inactive.

On to `O=C1CCc2c(Oc3ccc4c(c3)[C@H]3[C@@H](O4)[C@@H]3c3nc4ccc(C(F)(F)F)cc4[nH]3)ccnc2N1`, for which the GI50 is 1.86 µM and the TGI was over 100 µM.

`Cn1c(=O)nc2n(-c3cc(Cl)ccc3Cl)c3ccccc3nc-2c1=O`: the TGI was 19.5 µM.

The molecule `CCOC(=O)/C(=C/c1ccc(C(F)(F)F)cc1)N(CC)CC` had a TGI of over 100 µM.

`O=C1NC(N/N=C/c2cccs2)=N/C1=C\c1ccco1` registered a TGI of over 100 µM.

The molecule `OCn1nc2c(C3OCCO3)cc3ccccc3n2c1=S` came in with a TGI of over 100 µM.

As for `COc1ccc(-c2nc3c(-c4ccccc4)nc(-c4ccccc4)cn3c2-c2ccc(OC)cc2)cc1`, the GI50 is over 100 µM and the TGI was over 100 µM.

For `COc1cccc(/C=C2\COc3ccc(O)c(O)c3C2=O)c1`, the GI50 is 2.35 µM and the TGI was 9.31 µM.

`Nc1nc2ccc(NCc3ccc(C(=O)NC(CCC(=O)O)C(=O)O)cc3)cc2c(=O)[nH]1` (stereo not given) showed a TGI of over 100 µM.

As for `S=c1ssnc1-c1ccccn1`, the GI50 was 11.3 µM and the TGI stood at 52.7 µM.

In turn, `CCOC(=O)C(Br)(C(N)=O)C1(O)OC(c2ccccc2)=C(Br)C1=O` (stereo not given) displayed a TGI of over 100 µM.

`COC(=O)[C@]1(c2cc3ccccc3[nH]2)CC2CN(C(=O)OCc3ccccc3)C1C=C2OC` (stereo not given in full): the TGI is over 100 µM.

`O=C(OCCO)C1CC2CC1C1(C2)OCCO1` (stereo not given) had a TGI of over 100 µM.

`COc1ccc(NC(=S)Nc2ccccc2)cc1`: the TGI is over 100 µM.

In turn, `CC(=O)OCCn1c(Cc2ccc(C)cc2)nn(C(C)=O)c1=O` yielded a TGI of over 100 µM.

For the molecule `CN(C)c1ccc(/C=C(\NC(=O)c2ccccc2)C(=O)Nc2ccccc2C(=O)NCc2ccccc2)cc1`, the TGI was over 100 µM.

Molecule `c1ccc(C2N=NN(c3ccccc3)C2N2CCCCC2)cc1` (stereo not given) registered a TGI of over 100 µM.

For the molecule `NC(=S)C1=C(N)Oc2c(c(=O)oc3ccccc23)C1c1ccc(Br)cc1` (stereo not given), the TGI was over 100 µM.

Regarding `C=CCN(N=O)C(=O)NCCCC(NC(C)=O)C(=O)NCc1ccccc1` (stereo not given), the TGI is over 100 µM.

As for `O=[N+]([O-])c1ccc2sc(C=Nc3ccc(O)cc3)cc2c1`, the TGI was over 100 µM.

Regarding `C[C@]12CC[C@H]3[C@@H](CCC4=C[C@@H](N5CCCC5)CC[C@@]43C)[C@@H]1C/C(=C\c1ccncc1)[C@@H]2O`, the TGI is 27.5 µM.

Molecule `CCOP(=O)(CN1CCNCCN(CP(=O)(OCC)OCC)CC1)OCC` registered a TGI of over 100 µM.

On to `Nc1ccccc1NC(=O)c1ccc(CNC(=O)OCc2cccnc2)cc1`, for which the GI50 was 4.78 µM.

As to `C[C@]12CCC(=O)C[C@H]1CCC(O)[C@@H]2Br` (stereo not given in full), the TGI is over 100 µM.

Take `COc1nc2c(nc(N)n2C2OC(CO)C(O)C(O)C2O)c(=O)[nH]1` (stereo not given): the TGI is over 100 µM.

With `CC(C)C[C@@H](NC(=O)[C@@H](Cc1ccccc1)NC(=O)c1cnccn1)B1Oc2ccc(C[C@H](NC(=O)[C@H](Cc3ccc4c(c3)OB([C@@H](CC(C)C)NC(=O)[C@@H](Cc3ccccc3)NC(=O)c3cnccn3)O4)NC(=O)[C@@H](N)CC3CCC4OB([C@@H](CC(C)C)NC(=O)[C@@H](CC5CCCCC5)NC(=O)C5CNCCN5)OC4C3)C(=O)NCCCC[C@@H]3NC(=O)[C@@H](Cc4ccccc4)NC(=O)[C@H](CC(=O)O)NC(=O)CNC(=O)[C@H](CCCNC(=N)N)NC3=O)cc2O1` (stereo not given in full), the GI50 is 0.0744 µM and 0.0122 µM; the TGI came out at 0.482 µM.

As for `O=C1c2ccccc2C(=O)N1CCCC(=O)n1cc(F)c(=O)[nH]c1=O`, the TGI was over 100 µM.

Consider `CN1C[C@@H](c2ccc(Cl)cc2)[C@]2(NC(=S)N(c3ccc(F)c(Cl)c3)C2=O)[C@@]12C(=O)NC1C=CC(Cl)=C[C@H]12` (stereo not given in full), for which the GI50 was 3.61 µM and the TGI is 24.2 µM.

On to `[N-]=[N+]=NCC1OC(n2cnc3c(N)ncnc32)C2OC12` (stereo not given), for which the TGI is over 100 µM.

In the case of `CC(=O)Nc1c(Br)cc2c(c1Br)Cc1cc(Br)ccc1-2`, the GI50 is 4.52 µM and the TGI was 20.6 µM.

The molecule `O=C(O)c1cccc(SSc2cccc(C(=O)O)c2)c1` registered a TGI of over 100 µM.

The molecule `COc1cc(O)cc2oc(-c3ccc(O)cc3)cc(=O)c12` had a TGI of over 100 µM.

With `O=S(=O)(Nc1ccc(Cl)c(F)c1)c1ccc(-c2cnc(C3CC3)o2)cc1`, the GI50 was 3.36 µM and the TGI came out at 19.4 µM.

Turning to `Cc1cc(C)c([S@@](=O)O[C@@H]2[C@H]3OC(C)(C)O[C@H]3O[C@@H]2[C@H]2COC(C)(C)O2)c(C)c1`, the TGI was over 100 µM.

For the molecule `Nc1nc2c(c(=O)[nH]1)CN(CCCN1CCOCC1)CN2`, the TGI was over 100 µM.

`C(CCCCc1nnc(N2CCOCC2)o1)CCCc1nnc(N2CCOCC2)o1`: the TGI was over 100 µM.

Take `CC(=O)OC(C)(C)C1O[C@@]23OC1C[C@@H](C)[C@@H]2[C@@]1(C)CC[C@@]24C[C@@]25CC[C@H](OC2OCC(O)C(O)C2O)C(C)(C)[C@@H]5CCC4[C@]1(C)[C@H]3O` (stereo not given in full): the TGI was determined as 20.9 µM.

With `CC(C)(O)[C@@H]1CC[C@](C)(C2[C@@H](O)C[C@@]3(C)C4C[C@H](OC5OCC(O)C(O)C5O)[C@H]5C(C)(C)[C@@H](OC6OCC(O)C(O)C6OC6OCC(O)C(O)C6O)CC[C@@]56C[C@@]46CC[C@]23C)O1` (stereo not given in full), the TGI is over 100 µM.

For `C=C1C(=O)O[C@@H]2[C@@H]3O[C@@H](C[C@@H]13)[C@](C)(O)CC/C=C(\C)CCC[C@H]2C`, the GI50 is 13.3 µM and the TGI came out at 26.6 µM.

Consider `COc1ccc(Cc2c(-c3ccc(C)cc3)n[nH]c(=O)c2C2C(=O)N(c3ccccc3)N=C2c2ccccc2)cc1` (stereo not given), for which the TGI amounted to 78.6 µM.

Molecule `COc1ccc2c(c1)N=C(N)n1c(nc3ccccc31)S2` displayed a TGI of over 100 µM.

Molecule `CCOC(=O)C1=C(C)NC(C)=C(C(=O)OCC)C1c1ccc(Cl)cc1` showed a TGI of 27.9 µM.

The molecule `COc1ccccc1/C=C1\C(=O)N(C(=O)c2ccc(NC(C)=O)cc2)N=C1C` came in with a TGI of over 100 µM.

On to `CC(C)(C)C(=O)OCCNc1nc(-c2ccccc2)nc2ccccc12`, for which the TGI was found to be 15.4 µM.

`Cc1c(-c2c(C)c(=O)c3c(C(C)C)c(=O)c(=O)c(C=O)c-3c2=O)c(O)c2c(C=O)c(O)c(O)c(C(C)C)c2c1O` yielded a TGI of 7.27 µM.

Turning to `COc1ccc(-c2nc(N3CCCC3)no2)cc1`, the TGI is over 100 µM.

Regarding `COC(=O)c1c(C)c2n(c1C)C(=O)C(c1ccccc1)=C2`, the GI50 was over 87.2 µM and the TGI is over 100 µM.

Take `COc1ccc(/C=c2/s/c(=C(\C#N)c3nc4ccccc4[nH]3)n(-c3ccccc3)c2=O)cc1`: the TGI is over 100 µM.

Turning to `O=C(Nc1sccc1S(=O)(=O)c1ccc(Cl)cc1)c1ccc(Cl)cc1`, the TGI was over 100 µM.

Turning to `O=C(/C=C\Sc1ccccn1)c1cccc(Br)c1`, the GI50 was 18.1 µM and the TGI was determined as 36.4 µM.

`O=C1CSC(c2cccc(Cl)c2)N1c1ccc(-n2c(-c3ccccc3)nc3ccccc3c2=O)cc1` (stereo not given) yielded a TGI of over 100 µM.

Molecule `Clc1ccccc1CN1COc2c(cc(Cl)c3cccnc23)C1` gave a TGI of 16.1 µM.

`O=C(O)CNCP(=O)(O)O` came in with a TGI of over 100 µM.

For the molecule `COC(=O)C1=C(C(=O)OC)SC(=C(Cl)C(=S)Oc2ccccc2N)S1`, the GI50 was over 50 µM and the TGI is over 50 µM.

`Cc1ccc(-c2nc3nc(-c4ccc(Br)cc4)nc(N4CCCNCC4)c3o2)cc1`: the GI50 is 4.33 µM and the TGI came out at 16 µM.
